Measurements taken from US11484525B2 (priority 2015, dated 2022).

Biological target: MOR N127C (Homo sapiens (Human), UniProt P35372, N129C)
Assay: biochemical

C[C@H](CN1C(=O)C=CC1=O)NC(=O)NC[C@H](Cc1ccc(O)cc1)N(C)C [DD 179, 1-((S)-2-(dimethylamino)-3-(4-hydroxyphenyl)propyl)-3-((R)-1-(2,5-dioxo-2,5-dihydro-1H-pyrrol-1-yl)propan-2-yl)urea]
Ki: 290 nM
